We go through 44 molecules from paper PMC4336329 (PLoS ONE, 2015).

Structures are written as SMILES. Hit rate of the full screen: of about 310,000 compounds, about 14,000 (4.5%) showed an effect of 50% or more. Effects have a minus sign here. This is one part of the list.
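Also: peak tail current of the secondary pulse compared with the same well before compound.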

The target in this experiment is human ether-à-go-go-related gene (hERG) potassium channel (human, UniProt Q12809). The experiment in a line: primary screen, population patch clamp on CHO cells stably expressing hERG.
Sequence of human ether-à-go-go-related gene (hERG) potassium channel (Q12809 whole entry, looked up): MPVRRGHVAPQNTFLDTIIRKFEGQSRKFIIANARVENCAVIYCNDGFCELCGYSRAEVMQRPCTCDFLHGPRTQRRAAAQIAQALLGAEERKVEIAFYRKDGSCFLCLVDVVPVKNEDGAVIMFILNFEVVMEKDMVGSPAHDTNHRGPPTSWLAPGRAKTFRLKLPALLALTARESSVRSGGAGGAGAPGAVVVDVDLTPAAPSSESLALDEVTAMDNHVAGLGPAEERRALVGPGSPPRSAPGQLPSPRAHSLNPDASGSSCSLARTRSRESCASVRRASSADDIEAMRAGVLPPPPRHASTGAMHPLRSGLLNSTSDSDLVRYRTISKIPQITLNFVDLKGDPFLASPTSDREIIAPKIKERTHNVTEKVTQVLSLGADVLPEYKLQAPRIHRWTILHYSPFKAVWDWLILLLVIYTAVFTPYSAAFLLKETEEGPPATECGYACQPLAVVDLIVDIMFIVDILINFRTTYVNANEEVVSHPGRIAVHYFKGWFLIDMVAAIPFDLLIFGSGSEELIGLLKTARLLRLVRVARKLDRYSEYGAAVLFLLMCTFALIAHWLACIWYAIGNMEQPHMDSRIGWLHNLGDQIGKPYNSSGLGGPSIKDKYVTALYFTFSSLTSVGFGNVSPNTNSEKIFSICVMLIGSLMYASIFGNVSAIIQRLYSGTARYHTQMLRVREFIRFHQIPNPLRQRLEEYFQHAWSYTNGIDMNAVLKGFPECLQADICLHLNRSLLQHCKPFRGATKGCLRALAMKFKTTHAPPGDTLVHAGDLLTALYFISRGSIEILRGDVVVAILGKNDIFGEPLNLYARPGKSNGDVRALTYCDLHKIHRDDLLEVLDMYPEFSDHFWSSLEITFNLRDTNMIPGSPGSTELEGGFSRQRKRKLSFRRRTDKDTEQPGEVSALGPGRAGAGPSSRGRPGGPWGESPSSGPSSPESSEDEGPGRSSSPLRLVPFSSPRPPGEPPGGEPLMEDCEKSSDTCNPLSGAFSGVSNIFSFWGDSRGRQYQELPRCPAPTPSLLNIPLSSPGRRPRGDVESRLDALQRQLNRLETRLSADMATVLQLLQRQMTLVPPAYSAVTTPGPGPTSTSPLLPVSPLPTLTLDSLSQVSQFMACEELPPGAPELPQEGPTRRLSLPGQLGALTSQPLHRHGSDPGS
On to `CN(C)c1cc[n+](Cc2ccccc2)cc1.[Br-]`, for which the “hERG current change (%, negative = inhibition) at 10uM” value is -1.47%.

Consider `COc1cc2nc(Nc3ccc(C)c(C)c3)nc(N)c2cc1OC`, for which the “hERG current change (%, negative = inhibition) at 10uM” value was -34.7%.

Turning to `O=C(CSc1nncs1)Nc1ccc(Cl)cn1`, the “hERG current change (%, negative = inhibition) at 10uM” value is reported as -11.5%.

Take `Cl.OC(CCCN1CCCCC1)(c1ccccc1)c1ccccc1`: the “hERG current change (%, negative = inhibition) at 10uM” value was -44%.

Take `CCn1c(=S)sc2c(=O)n(CC(=O)Nc3ccccc3C(F)(F)F)c(C)nc21`: the “hERG current change (%, negative = inhibition) at 10uM” value is 10.6%.

Turning to `Cc1snc(SCC(=O)N/N=C(\N)COc2ccc(F)cc2)c1C#N`, the “hERG current change (%, negative = inhibition) at 10uM” value was 5.44%.

In the case of `COc1ccccc1Cn1c(/C=C/c2ccccc2)nc2ccccc21`, the “hERG current change (%, negative = inhibition) at 10uM” value worked out at 6.06%.

`CCOC(=O)N1CCC(NC(=O)c2ccc(N3CCC4(CC3)OCCO4)c([N+](=O)[O-])c2)CC1`: the “hERG current change (%, negative = inhibition) at 10uM” value was -11.5%.

Regarding `CC(=O)c1c(C)[nH]c(C(=O)COc2cc(C)ccc2C(C)C)c1C`, the “hERG current change (%, negative = inhibition) at 10uM” value amounted to 14.1%.

For the molecule `Cc1ccccc1Cn1cc(NC(=O)CSc2nc3c(c(C(F)(F)F)n2)CCc2ccccc2-3)cn1`, the “hERG current change (%, negative = inhibition) at 10uM” value was determined as 2.96%.

In the case of `Cc1ccc(C(=O)Nc2cccc(-c3ccc(N4CCOCC4)nn3)c2)cc1C`, the “hERG current change (%, negative = inhibition) at 10uM” value is reported as -20.9%.

In the case of `NC(=O)C1CCCN(C(=O)c2ccc3oc(Cc4ccc(Cl)cc4)nc3c2)C1` (centres unmarked), the “hERG current change (%, negative = inhibition) at 10uM” value is given as 8.01%.

In the case of `COC(=O)COc1ccc2occ(C(C)=O)c2c1`, the “hERG current change (%, negative = inhibition) at 10uM” value was -3.74%.

For `O=C(Nc1ccc(Cc2ccc(NC(=O)C3CC3)c(O)c2)cc1O)C1CC1`, the “hERG current change (%, negative = inhibition) at 10uM” value was found to be 8.31%.

Regarding `CC(C)Nc1nc(-c2ccncc2)nc(-c2ccc(Cl)cc2)c1C#N`, the “hERG current change (%, negative = inhibition) at 10uM” value is given as 13.7%.

For `COc1ccccc1C1(O)CC2CCC(C1)N2S(=O)(=O)c1ccc(C(C)=O)cc1` (centres unmarked), the “hERG current change (%, negative = inhibition) at 10uM” value is 10.5%.

In the case of `O=C(O)CC(NC(=O)C12CC3CC(CC(C3)C1)C2)c1ccc(OC2CCCC2)cc1` (centres unmarked), the “hERG current change (%, negative = inhibition) at 10uM” value is given as 8.73%.

On to `O=C(Nc1nccs1)C1CC(=O)N(c2ccc(F)cc2)C1` (centres unmarked), for which the “hERG current change (%, negative = inhibition) at 10uM” value was 2.57%.

With `O=c1sc2ccccc2c(N2CCCCC2)c1[N+](=O)[O-]`, the “hERG current change (%, negative = inhibition) at 10uM” value is given as -8.52%.

On to `O=C(c1cnccn1)N1CCN(c2ccccc2)CC1`, for which the “hERG current change (%, negative = inhibition) at 10uM” value was -12.2%.

With `Cc1cccc(NC(=S)N(C)C2CCCCC2)c1`, the “hERG current change (%, negative = inhibition) at 10uM” value amounted to 5.51%.

On to `O=C(CCCC(=O)c1ccccc1)NCCc1ccccc1F`, for which the “hERG current change (%, negative = inhibition) at 10uM” value is reported as -7.82%.

Take `COc1ccc(S(=O)(=O)N2CCOCC2)cc1NC(=O)CC1CCCC1`: the “hERG current change (%, negative = inhibition) at 10uM” value is -6.2%.

Regarding `COc1ccc(NC(=O)NC(C)c2ccccc2)cc1` (centres unmarked), the “hERG current change (%, negative = inhibition) at 10uM” value turned out to be 13.7%.

With `CCN(CC(=O)Nc1c(F)cccc1F)C(=O)CNC(=O)c1ccc2ccccc2c1`, the “hERG current change (%, negative = inhibition) at 10uM” value is recorded as -6.5%.

For `CCCCC(=O)NCCNC(=O)c1cc(OCC(F)(F)F)ccc1OCC(F)(F)F`, the “hERG current change (%, negative = inhibition) at 10uM” value amounted to 6.42%.

`O=C(c1ccc2c(=O)n3c(nc2c1)CCCCC3)N1CCN(C(c2ccccc2)c2ccccc2)CC1`: the “hERG current change (%, negative = inhibition) at 10uM” value is -12.8%.

Turning to `CCCCN(C(=O)CN1C(=O)C2CCCCC2C1=O)c1c(N)n(Cc2ccccc2)c(=O)[nH]c1=O` (centres unmarked), the “hERG current change (%, negative = inhibition) at 10uM” value was 8.3%.

For `Cc1c(Cl)cccc1NC(=O)CNC(=O)c1ccco1`, the “hERG current change (%, negative = inhibition) at 10uM” value stood at 16.6%.

On to `Cc1cc(C)nc(SCc2nnc(SCC(=O)Nc3ccc(C)c(C)c3)n2Cc2ccco2)n1`, for which the “hERG current change (%, negative = inhibition) at 10uM” value was determined as 4.18%.

Turning to `Cc1cccc(NC(=O)C2C3C=CC4(O3)C2C(=O)N(CCCN2CCCC2)C4C(=O)NC2CCCC(C)C2C)c1` (centres unmarked), the “hERG current change (%, negative = inhibition) at 10uM” value was 3.35%.

Take `CCCN(CCC)C(=O)CSc1ncccc1C(=O)O`: the “hERG current change (%, negative = inhibition) at 10uM” value amounted to 11%.

Take `Cc1ccc2nc(SCCCCOc3ccccc3)[nH]c2c1`: the “hERG current change (%, negative = inhibition) at 10uM” value amounted to 7.26%.

On to `COc1ccc(C)c2sc(N(CCN(C)C)C(=O)c3ccc4ccccc4c3)nc12.Cl`, for which the “hERG current change (%, negative = inhibition) at 10uM” value was -20.7%.

With `CCN(CC)C(=O)c1ccc(N)cc1`, the “hERG current change (%, negative = inhibition) at 10uM” value is -1.08%.

As to `COc1cc(CO)cc(-c2cc(CO)cc(OC)c2OC)c1OC`, the “hERG current change (%, negative = inhibition) at 10uM” value was found to be 10.3%.

Regarding `Cc1cccc(/C=N/NC(=O)c2cc(-c3cccnc3)nc3c2c(C)nn3-c2ccccc2)c1`, the “hERG current change (%, negative = inhibition) at 10uM” value was -11.3%.

For the molecule `COc1ccccc1CNC(=O)c1ccncc1`, the “hERG current change (%, negative = inhibition) at 10uM” value stood at 15%.

As to `CCn1c2ccccc2c2cc(C#N)c(N)nc21`, the “hERG current change (%, negative = inhibition) at 10uM” value is on record as 6.07%.

`COC(=O)c1sc(N)c(C(=O)OC)c1COC(=O)CCNS(=O)(=O)c1ccc(C)cc1`: the “hERG current change (%, negative = inhibition) at 10uM” value is -20.9%.

For the molecule `CC1(C)C2([N+](=O)[O-])CN3CC1([N+](=O)[O-])CN(C2)C3c1cccnc1` (centres unmarked), the “hERG current change (%, negative = inhibition) at 10uM” value came to 26%.

For the molecule `CCN1CCN(S(=O)(=O)c2ccc(F)c(C(=O)Nc3c(F)cc(F)cc3Br)c2)CC1`, the “hERG current change (%, negative = inhibition) at 10uM” value was -17.1%.

On to `CCOc1ccc(Nc2oc(-c3ccco3)nc2C#N)cc1`, for which the “hERG current change (%, negative = inhibition) at 10uM” value is -1.69%.

With `O=C(Nc1ccc(-c2nnc(-c3ccco3)o2)cc1)C(c1ccccc1)c1ccccc1`, the “hERG current change (%, negative = inhibition) at 10uM” value is on record as 4.27%.
